In PubChem BioAssay AID1346428 (National Center for Advancing Translational Sciences (NCATS), 2018):
Out of some 48,000 compounds screened, about 1,200 (2.5%) were called active. Inconclusive results (about 2%) are left out.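 How the source made its calls: active means activation of at least 60% and not above a set upper limit (about 1 call in 100 departs from these limits); inconclusive means activation of 40% to 60%, or above that upper limit; inactive means activation under 40%.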 Some of the results follow.

The compounds below were run against Probable G-protein coupled receptor 32 (Homo sapiens) (UniProt O75388) (assay: qHTS for Agonists of Human Resolvin D1 Receptor DRV1). Details: CHO-K1 GPR32 beta-arrestin PathHunter luminescence, 90 min; at 76.9 µM; stronger effect = higher value; zero percent set by DMSO-only wells.
UniProt O75388, sequence (O75388 whole entry, looked up): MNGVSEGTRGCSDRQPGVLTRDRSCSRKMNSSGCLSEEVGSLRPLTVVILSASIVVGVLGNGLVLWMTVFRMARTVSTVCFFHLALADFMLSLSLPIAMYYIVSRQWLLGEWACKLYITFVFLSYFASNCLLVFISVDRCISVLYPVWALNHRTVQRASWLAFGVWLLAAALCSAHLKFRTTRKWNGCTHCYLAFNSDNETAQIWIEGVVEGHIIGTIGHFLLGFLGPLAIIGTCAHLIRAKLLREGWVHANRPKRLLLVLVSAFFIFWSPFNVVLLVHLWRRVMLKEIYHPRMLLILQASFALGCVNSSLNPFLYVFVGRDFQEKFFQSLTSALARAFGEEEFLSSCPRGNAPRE
In short: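 Luminescent readout of beta-Gal complementation quantifies ligand-induced beta-arrestin association with GPR32 in CHO-K1 cells; 90 min compound incubation at 37 °C, detection 1 h at room temperature.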
Further: 0% is about no effect.

Structure (SMILES) | activation
CN(C(=O)C(=O)Nc1ccc2nc3n(c(=O)c2c1)CCCCC3)c1cccc(C(F)(F)F)c1 | inactive: 24.7%
CCc1ccc(CNC(=O)c2cc(-c3ccc(Br)s3)nc3ccccc23)cc1 | inactive: -5.41%
COc1cccc(-c2ccc3c(N)c(C(=O)NCc4ccc(Cl)cc4)sc3n2)c1 | inactive: 6.57%
COc1ccc(OC)c(-c2cc(C(=O)NC(C)c3ccccc3)no2)c1 (centres undefined) | inactive: -14.8%
O=C(Nc1ccccc1)c1cccc(S(=O)(=O)Nc2cccc(F)c2)c1 | inactive: 48.2%
CCCOc1ccc(C2C(=O)N(C3CCC(C)CC3)CC(=O)N2CCC2=CCCCC2)cc1OC (centres undefined) | inactive: -11.4%
Cc1cccc(N2CCN(C3(c4ccccc4)C(=O)c4ccccc4C3=O)CC2)c1C | inactive: -0.409%
Cc1ccc2onc(CC(=O)N(C)c3ccccc3)c2c1 | inactive: -10.7%
COc1ccc(CCNC(=O)c2c(C)nn(-c3ccc(F)cc3)c2-n2cccc2)cc1OC | inactive: 16.6%
O=S(=O)(Nc1ccc2nc(-c3cccc(Cl)c3)oc2c1)c1ccccc1 | active: 93.4%
Cc1ccc(S(=O)(=O)N2CCOCC2)cc1C(=O)Nc1ccccc1C(=O)O | inactive: -2.98%
CC(=O)N[C@@H](CCC(N)=O)C(=O)O | inactive: 2.95%
CCS(=O)(=O)c1ncc(Cl)c(C(=O)N2CCN(c3cccc(Cl)c3)CC2)n1 | inactive: -22%
[O-][n+]1ccccc1SSc1cccc[n+]1[O-] | inactive: 3.67%
Cc1ccc(NCc2ccccc2-c2nnc(-c3ccccc3Cl)o2)c(C)c1 | inactive: -19.9%
NC(=O)C1(N2CCCCC2)CCN(C(=O)Nc2ccc(C(F)(F)F)cc2)CC1 | inactive: -11.4%
Cc1ccc(CNS(=O)(=O)c2cc(C(=O)Nc3cccc(C(F)(F)F)c3)ccc2F)cc1 | inactive: 10.2%
CC(C)(Oc1ccc(Cl)cc1)C(=O)O | inactive: -1.94%
Cc1cc(C)c2c(=O)cc(CSc3nnc(COc4ccccc4C)n3C)[nH]c2c1 | inactive: 24.5%
Cc1ccc2c(c1)c1c(c(=O)n(-c3ccccc3C)c(=O)n1CC(=O)NCc1ccccc1)n2C | inactive: -30%
CCOC(=O)c1ccc(N2C(=O)c3n[nH]c(-c4cccs4)c3C2c2ccc(C(C)C)cc2)cc1 (centres undefined) | inactive: -27.7%
CN1CCCN=C1COC(=O)C(O)(c1ccccc1)C1CCCCC1 (centres undefined) | inactive: 4.91%
O=c1cc(-c2ccccc2)c2cc(Cl)c3c(c2o1)CN(Cc1ccccc1)CO3 | inactive: -8.18%
COc1ccc(CC(=O)NCc2ccc3c(c2)CCN3C(=O)c2ccc(Cl)cc2)cc1OC | inactive: 7.75%
